In article PMC4583372:
Where a chain is given by its changes, count along the chain named. Results are given in words; binding and its absence hold for the method and conditions named. In cells and extracts the contact can be indirect. Some results given as binding are weak or reduced against the parent protein; the word gives no strength.

Chains of the proteins cited; added tags and fusions are not shown.
UniProt P32958: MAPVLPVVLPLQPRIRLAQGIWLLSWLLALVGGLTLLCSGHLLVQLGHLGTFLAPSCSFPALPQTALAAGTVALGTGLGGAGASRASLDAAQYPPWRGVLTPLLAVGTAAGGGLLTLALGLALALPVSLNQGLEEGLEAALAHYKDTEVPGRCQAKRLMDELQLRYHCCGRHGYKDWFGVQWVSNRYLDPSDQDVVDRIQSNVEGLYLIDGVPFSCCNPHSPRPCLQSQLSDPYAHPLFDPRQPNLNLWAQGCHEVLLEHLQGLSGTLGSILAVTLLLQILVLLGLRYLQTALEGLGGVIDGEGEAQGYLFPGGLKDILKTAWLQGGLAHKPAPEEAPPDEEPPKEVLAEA

Assays:
[1] = target: T1, Peripherin-2 also known as RDS (retinal degeneration slow) (mouse (endogenous in retina)) (UniProt P15499); experiment: proximity ligation; Duolink In Situ kit on WT mouse retinal cryosections; paired sections with regular immunofluorescence
T1 sequence: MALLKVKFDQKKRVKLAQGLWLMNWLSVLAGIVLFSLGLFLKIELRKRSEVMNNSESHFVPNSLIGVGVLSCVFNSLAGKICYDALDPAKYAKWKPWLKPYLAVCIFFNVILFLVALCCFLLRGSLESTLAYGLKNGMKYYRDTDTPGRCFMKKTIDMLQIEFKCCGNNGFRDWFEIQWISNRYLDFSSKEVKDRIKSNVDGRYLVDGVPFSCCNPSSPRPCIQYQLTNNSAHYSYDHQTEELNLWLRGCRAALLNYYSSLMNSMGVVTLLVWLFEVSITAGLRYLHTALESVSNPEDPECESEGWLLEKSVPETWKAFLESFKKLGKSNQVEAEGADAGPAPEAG

[2] = target: ROM-1 (rod outer segment protein 1) (mouse (endogenous in retina)) (UniProt P32958); experiment: as above
[3] = target: T1, Peripherin-2 also known as RDS (retinal degeneration slow) (mouse (endogenous in retina)); experiment: co-IP; retinal extracts from rds-/- mice (IP with ROM-1 mAB 2H5) and rom1-/- mice (IP with RDS-CT); western blot for Syn3B
[4] = target: ROM-1 (rod outer segment protein 1) (mouse (endogenous in retina)) (UniProt P32958); experiment: as above
[5] = target: T1, Peripherin-2 also known as RDS (retinal degeneration slow) (mouse (endogenous in retina)); experiment: co-IP; Triton X-100 extracted WT mouse retinas; IP with RDS, ROM-1 or Syn3B antibodies and protein A sepharose; western blot
[6] = target: ROM-1 (rod outer segment protein 1) (mouse (endogenous in retina)) (UniProt P32958); experiment: as above
[7] = target: T2, C150S-RDS of knockin mice (rds ^C150S/C150S) (mouse (knock-in, in retina)) (UniProt P15499); experiment: co-IP; retinal extracts of WT, nrl-/-, rds C150S/C150S, rds Y141C/Y141C, R172W/rds-/- and R172W/rds-/-/nrl-/- mice; detergent not indicated; IP with anti-Syn3B-478 (elution non-reducing, or eluents treated with EndoH) or with RDS antibodies (mAB 2E7 or RDS-CT); western blot
T2 sequence: T1 sequence with C150S

[8] = target: T1, Peripherin-2 also known as RDS (retinal degeneration slow) (mouse (endogenous in retina)); experiment: as above
[9] = target: T3, R172W-RDS of transgenic mice (R172W/rds ^-/- and R172W/rds ^-/- /nrl ^-/-) (UniProt P15499); experiment: as above
T3 sequence: T1 sequence with R172W

[10] = target: T4, Y141C-RDS of knockin mice (rds ^Y141C/Y141C) (mouse (knock-in, in retina)) (UniProt P15499); experiment: as above
T4 sequence: T1 sequence with Y141C

binding [1]: binds
binding [2]: binds
binding [3]: binds
binding [4]: binds
binding [5]: binds
binding [6]: binds
binding [7]: binds
binding [8]: binds
binding [9]: binds
binding [10]: binds
B1: Syntaxin-3 isoform B (Stx3) (protein, UniProt Q64704-2 1-287)
chain: MKDRLEQLKAKQLTQDDDTDEVEIAIDNTAFMDEFFSEIEETRLNIDKISEHVEEAKKLYSIILSAPIPEPKTKDDLEQLTTEIKKRANNVRNKLKSMEKHIEEDEVRSSADLRIRKSQHSVLSRKFVEVMTKYNEAQVDFRERSKGRIQRQLEITGKKTTDEELEEMLESGNPAIFTSGIIDSQISKQALSEIEGRHKDIVRLESSIKELHDMFMDIAMLVENQGAMIDRIENNMDQSVGFVERAVADTKKAVKYQSEARRKKIMIMICCIILAIILASTIGGIFA
